Data from PubChem BioAssay AID624170 (National Center for Advancing Translational Sciences (NCATS), 2012).
About 850 (0.21%) of roughly 410,000 compounds were called active. Inconclusive means that the source gave no clear call. Such entries were picked first, then a sample of the others. Calls follow the shape of the dose curve; as a rule, active = well fitted inhibition curve with a large enough effect; inconclusive = small, poorly fitted or top-dose-only effect, or another doubt; inactive = no such curve, though single readings can be large or run the other way. No potency is given beside an inconclusive call; the fits are too rough.

Biological target: Glutaminase kidney isoform, mitochondrial (Homo sapiens) (UniProt O94925)
UniProt O94925, sequence (O94925 whole entry, looked up, canonical isoform): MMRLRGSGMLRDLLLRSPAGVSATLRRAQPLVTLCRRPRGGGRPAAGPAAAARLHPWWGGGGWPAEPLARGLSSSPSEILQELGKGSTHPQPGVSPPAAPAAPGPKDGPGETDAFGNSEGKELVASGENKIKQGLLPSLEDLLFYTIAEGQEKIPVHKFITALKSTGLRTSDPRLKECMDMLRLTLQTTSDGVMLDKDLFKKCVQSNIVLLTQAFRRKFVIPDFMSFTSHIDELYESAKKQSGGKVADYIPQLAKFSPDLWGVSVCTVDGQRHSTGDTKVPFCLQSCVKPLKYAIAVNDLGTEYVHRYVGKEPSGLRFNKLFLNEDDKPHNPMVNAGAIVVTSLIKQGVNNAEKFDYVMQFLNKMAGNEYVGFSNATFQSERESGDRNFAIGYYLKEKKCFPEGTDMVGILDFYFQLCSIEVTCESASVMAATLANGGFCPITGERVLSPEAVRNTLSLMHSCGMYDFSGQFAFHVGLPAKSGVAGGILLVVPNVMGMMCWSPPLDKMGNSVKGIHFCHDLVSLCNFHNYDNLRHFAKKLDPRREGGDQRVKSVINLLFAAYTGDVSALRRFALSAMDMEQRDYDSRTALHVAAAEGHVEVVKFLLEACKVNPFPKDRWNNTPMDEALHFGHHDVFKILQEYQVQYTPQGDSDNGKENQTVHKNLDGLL
Experiment: qHTS for Inhibitors of Glutaminase (GLS)
Conditions: GLS enzymatic activity, qHTS titration; series mostly up to 45.5 µM
Outline: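 Coupled fluorescence readout: glutamate oxidase/HRP/Amplex Red detect glutamate formed by hKGA from L-glutamine (1 mM solution added). Buffer 45 mM KH2PO4 pH 8.2, 0.02% Tween-20; reads at t0 and 30 min RT.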
Potency is read from the fitted curve at half-maximal effect; tags tell the direction and shape of the fitted curve.

| SMILES | Potency |
| --- | --- |
| O=P(O)(CCc1ccccn1)CN1CCOCC1 | inactive |
| CCOc1ccc(N2C(=O)/C(=C/c3ccco3)N(C)C2=S)cc1 | inactive |
| CCC(C(=O)Nc1cc(C(=O)O)ccc1C)c1ccccc1 (stereo not drawn) | inconclusive [inhibitor, single point] |
| Cc1cc2[nH]c(=O)c(=O)[nH]c2cc1S(=O)(=O)N1CCN(c2cccc(Cl)c2)CC1 | inactive |
| Cn1c(SCC(=O)c2ccc3c(c2)Cc2ccccc2-3)nnc1-c1ccccc1 | inconclusive [inhibitor, single point] |
| CN(c1cc2c(c3c1ccn3C)C1CCC2O1)C1CCCCC1 (stereo not drawn) | inactive |
| OCCN(CCO)c1ncnc2c1sc1nc(N3CCOCC3)c3c(c12)CCCC3 | inactive |
| CC1=NN(c2ccccc2)C(=O)/C1=C\C=C\c1ccccc1 | inconclusive [inhibitor, single point] |
| Cc1cc(NC(=O)Cn2nnc(-c3ccccc3NC(=O)c3ccccc3F)n2)no1 | inconclusive [inhibitor, single point] |
| Cc1cc(C)c(S(=O)(=O)Nc2nnc(C)s2)c(C)c1 | inconclusive [inhibitor, single point] |
| CC(C)CS(=O)(=O)C1=NSC2=NC(=O)/C(=C\c3ccc(OC(=O)c4ccco4)cc3)C(=N)N21 | inactive |
| CCC(C)NCCOCCOc1ccc(Cl)c(C)c1C (stereo not drawn) | inactive |
| CCCN1C(=O)c2ccc(C(=O)Nc3cc(C)ccc3O)cc2C1=O | inconclusive [inhibitor, partial curve] |
| O=C(NNC(=S)Nc1ccccc1Cl)c1ccncc1 | inconclusive [inhibitor, single point] |
| COc1ccccc1CNC(=O)CSc1ncc(S(=O)(=O)c2ccc(C)c(Cl)c2)c(=O)[nH]1 | inactive |
| c1ccc(NNC2=NCCS2)cc1 | inconclusive [inhibitor, single point] |
| Cc1c(N=C2C=C(Br)C(=O)C(Br)=C2)c(=O)n(-c2ccccc2)n1C | inconclusive [inhibitor, single point] |
| Cc1ccc(NC(=O)C2CCN(S(=O)(=O)c3ccc4c(c3)NC(=O)C(C)S4)CC2)cc1C (stereo not drawn) | inactive |
| CN(CC(=O)Nc1n[nH]c(=S)s1)S(=O)(=O)c1cccc2cccnc12 | inconclusive [inhibitor, single point] |
| CCSc1nnc(-c2ccncc2)n1Cc1ccccc1 | inconclusive [inhibitor, partial curve, poor fit] |
| CCN1CCN(CC(O)COc2ccc(C(C)=O)cc2)CC1 (stereo not drawn) | inactive |
| CC(C)(C)c1ccc(O)c(N=Cc2cc3c(cc2[N+](=O)[O-])OCO3)c1 | inconclusive [inhibitor, single point] |
| Nc1cc(Cl)nc(N/N=C/c2c(O)ccc3ccccc23)n1 | inconclusive [inhibitor, single point] |
| O=C(O)c1cc(N2N=C(C(F)(F)F)/C(=C/C=C/c3ccco3)C2=O)ccc1Cl | active: 8.91 µM |
| CCOc1cccc(C2/C(=C(/O)c3ccc4c(c3)CC(C)O4)C(=O)C(=O)N2CCCn2ccnc2)c1 (stereo not drawn) | inactive |

| SMILES | Potency |
| --- | --- |
| COCCCNC(=O)Cn1c(=O)n(Cc2ccc(C(=O)NCc3ccc(C)cc3)cc2)c(=O)c2ccccc21 | inactive |
| COc1ccc(OCc2nc3c4cc(OC)c(OC)cc4nc(=S)n3[nH]2)cc1 | inconclusive [inhibitor, single point] |
| CN1C(=O)c2ccc(NC(=O)c3ccc(Cl)cc3Cl)cc2C1=O | inactive |
| Cc1ccccc1Cn1cc(CCC(=O)NC(C)c2ccccc2)c2ccccc21 (stereo not drawn) | inactive |
| COc1ccc(O)c(/C=N/NC(=S)NCCc2ccccc2)c1 | inconclusive [inhibitor, partial curve, poor fit] |
| C=CCC(C)(NCc1ccccc1)c1ccccc1 (stereo not drawn) | inactive |
| O=C(NC1CC1)c1ccc(NC(=O)C2CCC2)cc1 | inactive |
| CCOC(=O)C1(CCOc2ccccc2)CCN(Cc2cc(OC)c3c(c2)OCO3)CC1 | inactive |
| Cc1ccc(NC(=O)c2nc(S(C)(=O)=O)ncc2N(Cc2ccco2)Cc2ccccc2F)c(C)c1 | inactive |
| Cc1ccccc1S(=O)Cc1ccc(C(=O)NC2CCCCCC2)o1 (stereo not drawn) | inconclusive [inhibitor, single point] |
| COc1ccc(Nc2ncccc2C(=O)Nc2ccccc2)cc1 | inconclusive [inhibitor, single point] |
| O=C(CCNC(=O)c1ccc(Br)cc1)NNC(=O)c1ccccc1O | inconclusive [inhibitor, partial curve] |
| N#C/C(=C\c1ccccc1OCc1ccc(C(=O)O)cc1)C(=O)Nc1ccc(O)cc1 | inconclusive [inhibitor, single point] |
| Cn1cnc2cc(NCc3ccccc3Cl)ccc21 | inconclusive [inhibitor, partial curve, poor fit] |
| O=C(Nc1sc2c(c1C(=O)NCCO)CCCC2)c1ccco1 | inconclusive [inhibitor, partial curve, poor fit] |
| COc1cc(/C=C/C(=O)OCC(=O)NC2CC2)cc(S(=O)(=O)N2CCc3ccccc32)c1OC | inactive |
| CC1CC2=C(NC(=S)NC2c2ccc(F)cc2)/C(=C/c2ccc(F)cc2)C1 (stereo not drawn) | inconclusive [inhibitor, single point] |
| O=C(c1ccc(N2CCOCC2)cc1)N1CCCC(Nc2ccccc2)C1 (stereo not drawn) | inconclusive [inhibitor, single point] |
| CCN(c1ccccc1)S(=O)(=O)c1ccc(OC)c(NC(=O)Cc2ccc(OC)c(OC)c2)c1 | inactive |
| CCOC(=O)C1(CC2CC2)CCN(Cc2cn(C)c3ccccc23)CC1 | inconclusive [inhibitor, single point] |
| Nc1ncnc2nc(SCC(=O)Nc3cccc(C(F)(F)F)c3)[nH]c12 | inactive |
| Cc1ccc(C)c(-c2cc(C(=O)NNC(=S)NCC(C)C)c3ccccc3n2)c1 | inactive |
| Cc1cccc(CC(=O)NCC(=O)NCc2cc(=O)n(C)c(=O)n2C)c1 | inconclusive [inhibitor, single point] |
| O=C(Cn1cc([N+](=O)[O-])cn1)Nc1ccn(Cc2c(F)c(F)cc(F)c2F)n1 | inconclusive [inhibitor, single point] |
| Fc1ccc(CN2CCCCCC2)c(F)c1 | inactive |

| SMILES | Potency |
| --- | --- |
| CC(=O)Nc1ccc(NC(=O)C2(C)CC2(Cl)Cl)cc1 (stereo not drawn) | inconclusive [inhibitor, single point] |
| CC1=CC(=O)C(C(C)C)=C/C1=N/OS(=O)(=O)c1ccccc1 | inactive |
| Cc1ccc(Nc2ccccc2N)cc1 | inconclusive [inhibitor, single point] |
| O=C(CCOc1ccccc1)N1CCN(c2ccc(O)cc2)CC1 | active: 11.2 µM |
| COC1=C(OC)C(=O)C(Sc2ccc3ccccc3c2)=CC1=O | active: 10 µM |
| NNC(=O)c1ccc(OCC2CC(c3ccc(Cl)cc3)=NO2)cc1 (stereo not drawn) | inconclusive [inhibitor, partial curve, poor fit] |
| O=C(CN(C(=O)CCC(=O)Nc1nccs1)c1cccc(F)c1)NCCc1ccccc1 | inconclusive [inhibitor, partial curve, poor fit] |
| CCN(CC)P(=O)(Nc1ccccc1Br)c1ccc(N(C)C)cc1NC(=O)c1ccco1 (stereo not drawn) | inactive |
| CC(=O)Nc1cc(NC(C)=O)cc(C(=O)N2CCCC3CCCCC32)c1 (stereo not drawn) | inconclusive [inhibitor, single point] |
| CCOC(=O)C1=C(C)Nc2ccccc2N/C1=N\S(=O)(=O)c1cc(C(=O)O)ccc1Cl | inconclusive [inhibitor, partial curve, poor fit] |
| CCN(CC)Cc1c(NC(=O)c2ccccc2)sc(C)c1C | inactive |
| Cc1ccc(CNC(=O)COC(=O)C2CCN(S(=O)(=O)c3cccs3)CC2)cc1 | inconclusive [inhibitor, single point] |
| C=C(C)C(=O)Nc1cccc(C2=NOC3(C2)C[C@@H](C(N)=O)N(C(=O)/C=C/C=C/C)C3)c1 (stereo partly drawn) | active: 11.2 µM |
| CCOc1cc(C2NN=C(c3ccccc3)S2)ccc1OCc1ccccc1Cl (stereo not drawn) | inconclusive [inhibitor, partial curve, poor fit] |
| COc1ccc(C(=O)COC(=O)CNC(=O)C2CCCCC2)c(OC)c1 | inactive |
| COc1ccc(/C=N/N(Cc2ccccc2)c2ccccc2)cc1O | active: 15.8 µM |
| COCCn1c(C)cc(C(=O)COC(=O)c2ccc3ncsc3c2)c1C | inconclusive [inhibitor, single point] |
| CN(C1CC(C)(C)N(O)C(C)(C)C1)S(=O)(=O)CC12CCC(CC1=O)C2(C)C (stereo not drawn) | inconclusive [inhibitor, single point] |
| CCn1cc(C(=O)N[C@@H](CCSC)C(=O)NC(C)(C)CO)c(=O)c2cc3c(cc21)OCO3 | inactive |
| COc1ccc(NC(=O)c2nc[nH]c2C(=O)N[C@H](C)c2ccccc2)cc1 | inactive |
| COc1ccc(-c2cnc3c(NC(C)=O)cc(-c4ccccc4OC)cn23)cc1OC | inconclusive [inhibitor, single point] |
| CCC(=O)Nc1cc(=O)[nH]c2nc(-c3ccc(Cl)cc3)nn12 | inconclusive [inhibitor, single point] |
| COc1ccccc1N(C(=O)c1snc(C(N)=O)c1N)C(C(=O)NC1CCCC1)c1ccco1 (stereo not drawn) | inactive |
